# Measured values published in PMC4336329 (PLoS ONE, 2015).
# Screen size: about 310,000 compounds; about 14,000 (4.5%) showed an effect of 50% or more. The effect is printed as a negative number. The list shows a part of the results.
# Target: human ether-à-go-go-related gene (hERG) potassium channel (human, UniProt Q12809)
# Assay: primary screen, population patch clamp on CHO cells stably expressing hERG
# 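Also: peak tail current of the secondary pulse compared with the same well before compound.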
# Chain of human ether-à-go-go-related gene (hERG) potassium channel (Q12809 whole entry, looked up): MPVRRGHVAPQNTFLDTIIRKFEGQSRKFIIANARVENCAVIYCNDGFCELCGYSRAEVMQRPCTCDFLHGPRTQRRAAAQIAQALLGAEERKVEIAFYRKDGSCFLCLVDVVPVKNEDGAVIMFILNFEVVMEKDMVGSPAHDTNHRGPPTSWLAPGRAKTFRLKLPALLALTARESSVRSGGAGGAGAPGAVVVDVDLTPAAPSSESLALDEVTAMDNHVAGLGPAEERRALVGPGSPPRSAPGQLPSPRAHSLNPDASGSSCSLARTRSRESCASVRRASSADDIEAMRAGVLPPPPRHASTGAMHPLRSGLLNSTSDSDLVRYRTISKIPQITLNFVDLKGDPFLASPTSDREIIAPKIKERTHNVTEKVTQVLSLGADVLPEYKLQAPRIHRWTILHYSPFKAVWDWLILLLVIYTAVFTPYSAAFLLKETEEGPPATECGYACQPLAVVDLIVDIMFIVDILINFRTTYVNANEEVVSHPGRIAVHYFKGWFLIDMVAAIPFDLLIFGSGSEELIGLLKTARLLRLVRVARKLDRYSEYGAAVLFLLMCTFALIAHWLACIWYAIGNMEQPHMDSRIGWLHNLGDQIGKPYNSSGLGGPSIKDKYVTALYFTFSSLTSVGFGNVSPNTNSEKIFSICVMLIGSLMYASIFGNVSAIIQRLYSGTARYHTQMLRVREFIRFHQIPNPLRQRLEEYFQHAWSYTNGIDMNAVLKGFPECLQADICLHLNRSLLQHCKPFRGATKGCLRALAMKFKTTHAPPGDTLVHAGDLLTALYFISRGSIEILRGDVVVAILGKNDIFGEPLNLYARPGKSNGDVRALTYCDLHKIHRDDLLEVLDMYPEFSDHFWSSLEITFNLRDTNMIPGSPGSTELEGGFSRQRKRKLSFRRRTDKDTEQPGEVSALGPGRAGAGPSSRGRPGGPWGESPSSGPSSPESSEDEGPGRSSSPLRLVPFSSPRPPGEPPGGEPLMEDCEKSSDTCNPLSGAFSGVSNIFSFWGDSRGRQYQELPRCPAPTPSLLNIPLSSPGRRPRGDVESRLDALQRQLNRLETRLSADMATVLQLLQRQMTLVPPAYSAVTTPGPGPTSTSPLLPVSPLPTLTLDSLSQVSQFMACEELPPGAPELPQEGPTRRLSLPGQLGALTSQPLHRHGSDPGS
row,Compound,"hERG current change (%, negative = inhibition) at 10uM [%]"
1,CN(CC(=O)Nc1ccccc1Cl)C(=O)COC(=O)/C=C/c1cccs1,-13.5
2,Cn1c(=O)c2c(nc(N/N=C/c3ccc(OC(=O)c4ccco4)cc3)n2Cc2ccc(F)cc2)n(C)c1=O,-5.07
3,C=CCn1nc(-c2ccccc2)cc1C(=O)OCC,6.85
4,CC1CCc2sc(C(=O)N=Nc3c(O)[nH]c4ccccc34)cc2C1 (centres unmarked),13.7
5,O=C(COc1ccc(Cl)cc1)Nc1ccc(C(=O)NCc2cccnc2)cc1,-36.8
6,Cn1c(SCc2ccccc2F)nnc1-c1cnccn1,7.73
7,Cc1[nH]c2ccccc2c1-c1csc(NC(=O)CSCCO)n1,-3.86
8,O=C(Cc1cccs1)N/N=C\c1ccc(O)cc1,14.5
9,COc1ccc2[nH]c(=O)c(CN(C)C(=O)c3cccs3)cc2c1,-22.9
10,COc1ccc(-c2nnn(-c3ccc(Cl)cc3Cl)c2N)cc1,-29.8
11,COc1ccccc1OCc1nc(C#N)c(NCCCn2ccnc2)o1,6.7
12,CN1C[C@@H]2C(c3ccc(Cl)nc3)C3(c4ccc(C#N)cc4)CC2(C3)[C@H]1c1ccccc1 (some centres unmarked),-54.9
13,C[C@H](C(=O)NCc1ccccc1)C(=O)c1ccccc1,18
14,CCc1nnc(NC(=O)c2sc3nc4cc(C)ccc4cc3c2N)s1,13
15,CCOc1cc(CNCCO)cc(Br)c1OCc1ccccc1.Cl,-2.35
16,c1ccc(CNc2nc(-c3cccs3)nc3ccccc23)nc1,-28.6
17,CC(=O)Nc1ccc(NC2=Nc3ccccc3N3C2=Nc2c(c(C)nn2-c2ccccc2)C3c2ccccc2)cc1 (centres unmarked),1.09
18,COc1cc(NC(=O)CN2CCN(c3ccccc3)CC2)c(C)cc1[N+](=O)[O-],-7.07
19,Cc1cc(C)cc(NC2=NCC(=O)N2Cc2ccccc2)c1,-5.49
20,CCOC(=O)c1csc(COc2ccc(OC)cc2)n1,-34.5
21,O=C(Nc1ncc(Cc2ccc(Cl)cc2Cl)s1)c1ccc([N+](=O)[O-])cc1,-14.4
22,COCCCN1C(=O)C(=O)/C(=C(/O)c2ccc(OC(C)C)cc2)C1c1cccnc1 (centres unmarked),24.3

row,Compound,"hERG current change (%, negative = inhibition) at 10uM [%]"
1,O=C(O)CCC(=O)CCC(=O)c1ccccc1,11
2,CCCCNC(=O)CSc1nc2ccc(NC(=O)CSc3nnc(COc4ccccc4C)n3C)cc2s1,-8.91
3,Cc1cc(=O)oc(C)c1C(=O)Nc1cccc(F)c1,21.2
4,COc1ccc(NC(=O)C2CCCC2)cc1S(=O)(=O)N1CCOCC1,-1.23
5,CC(C)(C)C1=CC(O)(c2ccccc2)C=C(C(C)(C)C)C1=O,-13.4
6,O=S(=O)(c1ccc2c(c1)OCCO2)N1CCN(c2nc(-c3cccnc3)nc3ccccc23)CC1,-29.9
7,O=C(O)c1ccc(-n2nc(C(F)(F)F)c3c2-c2ccoc2CC3)cc1,16.3
8,CC(C)(C)C(=O)NC1(C(F)(F)F)NC(=O)N(c2ccc(F)cc2)C1=O (centres unmarked),0.322
9,COC(=O)c1cc(N2CCNCC2)nc2ccccc12.Cl,-17
10,Cc1sc(-c2ccncc2)nc1OC(=O)c1ccc(F)cc1F,27.3
11,COc1ccc(N2CCC(CNC(=S)Nc3cccc(C)c3)C2)cc1 (centres unmarked),-0.0408
12,CCC1CCCCN1C(=S)NC(=O)c1ccc(F)c(S(=O)(=O)N2CCOCC2)c1 (centres unmarked),-0.888
13,CC(C)[C@H](NC(=O)N1CC(=O)Nc2ccccc21)C(=O)Nc1nccs1,22.2
14,S=c1[nH]nc(-c2ccccc2)n1/N=C/C=C/c1ccco1,13
15,O=C(CCc1nnc(-c2ccsc2)o1)N1CCCCC1CCn1ccnc1 (centres unmarked),-28.1
16,c1coc(C2OCC3(CO2)COC(c2ccco2)OC3)c1 (centres unmarked),11.4
17,Cc1cc(C(=O)Nc2ccccc2N2CCOCC2)c(C)o1,-18.1
18,CCc1cccc(C)c1NC(=O)CSc1nc(-c2ccccc2F)nc2nc[nH]c12,3.31
19,COc1ccc(C(=O)N/C(=C\c2ccccc2)C(=O)Nc2ccccc2C(=O)O)cc1,11.3
20,Fc1ccc(Cn2nnc(-c3ccc(Cl)cc3)n2)cc1,18.4
21,CC(=C/C(=O)[O-])/C=C/c1ccco1.[Na+],12.5
22,CCc1cc(=O)oc2c(C)c(OCC(=O)NCCCN3CCCC3=O)ccc12,-7.32
